Here are results for four substances from PMC12284681.

The chains behind the UniProt entries cited, without tags or fusion partners.
UniProt P05412: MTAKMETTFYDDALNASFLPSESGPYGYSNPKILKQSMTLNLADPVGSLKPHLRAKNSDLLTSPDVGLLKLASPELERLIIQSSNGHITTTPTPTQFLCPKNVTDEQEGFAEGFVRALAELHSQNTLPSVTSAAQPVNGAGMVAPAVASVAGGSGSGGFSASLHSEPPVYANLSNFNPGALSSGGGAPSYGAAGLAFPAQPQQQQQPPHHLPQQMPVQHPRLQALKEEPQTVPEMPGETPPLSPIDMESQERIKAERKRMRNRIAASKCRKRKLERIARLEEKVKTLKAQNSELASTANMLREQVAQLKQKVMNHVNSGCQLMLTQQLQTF
UniProt Q13177: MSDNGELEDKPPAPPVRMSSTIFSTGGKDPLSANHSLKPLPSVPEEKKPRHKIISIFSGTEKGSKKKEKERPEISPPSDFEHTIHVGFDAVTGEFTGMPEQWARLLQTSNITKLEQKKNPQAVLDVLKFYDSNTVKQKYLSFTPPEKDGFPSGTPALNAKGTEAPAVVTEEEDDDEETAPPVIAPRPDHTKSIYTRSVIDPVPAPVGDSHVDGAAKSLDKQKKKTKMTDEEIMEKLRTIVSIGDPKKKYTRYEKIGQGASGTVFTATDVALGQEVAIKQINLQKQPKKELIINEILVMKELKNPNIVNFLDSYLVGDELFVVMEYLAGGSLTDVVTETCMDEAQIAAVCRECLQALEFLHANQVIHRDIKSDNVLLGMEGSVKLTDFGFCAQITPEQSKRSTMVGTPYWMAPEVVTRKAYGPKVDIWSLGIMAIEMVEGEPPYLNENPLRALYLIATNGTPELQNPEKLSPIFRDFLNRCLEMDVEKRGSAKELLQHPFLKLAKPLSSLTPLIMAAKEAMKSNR
UniProt P01100: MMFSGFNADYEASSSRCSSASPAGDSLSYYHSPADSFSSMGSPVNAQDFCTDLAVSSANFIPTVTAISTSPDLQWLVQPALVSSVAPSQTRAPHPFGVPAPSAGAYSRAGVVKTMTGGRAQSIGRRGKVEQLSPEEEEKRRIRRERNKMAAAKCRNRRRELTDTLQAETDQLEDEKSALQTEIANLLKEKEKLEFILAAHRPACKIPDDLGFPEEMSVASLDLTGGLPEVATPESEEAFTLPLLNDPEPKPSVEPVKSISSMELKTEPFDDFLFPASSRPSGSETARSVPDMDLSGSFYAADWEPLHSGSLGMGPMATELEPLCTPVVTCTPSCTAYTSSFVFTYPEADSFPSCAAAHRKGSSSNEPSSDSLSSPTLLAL

Positions count from the first letter of the chain named. Results are given in words; binding and its absence hold for the method and conditions named. Binding seen in cells or lysates may run through a third protein. Some results given as binding are weak or reduced against the parent protein; the word gives no strength. For some assays here: Sequences can lack the tags named with a protein.

For assay [1], the target named is T1, Flag-ALDOA E35D (human) (UniProt P04075).
T1 sequence: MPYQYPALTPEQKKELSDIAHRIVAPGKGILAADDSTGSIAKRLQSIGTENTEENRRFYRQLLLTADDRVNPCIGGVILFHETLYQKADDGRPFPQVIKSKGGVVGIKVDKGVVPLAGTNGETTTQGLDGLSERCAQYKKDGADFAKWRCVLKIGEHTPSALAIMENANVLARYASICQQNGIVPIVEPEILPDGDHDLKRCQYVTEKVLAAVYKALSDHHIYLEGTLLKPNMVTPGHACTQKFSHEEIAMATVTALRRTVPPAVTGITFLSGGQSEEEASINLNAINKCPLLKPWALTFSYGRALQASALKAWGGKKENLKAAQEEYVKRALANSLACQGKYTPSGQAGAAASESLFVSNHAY
The experiment in a line: co-IP; HEK293T cells transiently transfected with Flag-ALDOA and/or Myc-c-Jun (WT or mutants); anti-FLAG or anti-MYC on protein A/G sepharose, 4 °C overnight; western blot. In general terms: A western blot detects proteins with antibodies after separation by electrophoresis.

Assay [2] addresses T2, Flag-ALDOA, wild type (human) (UniProt P04075).
T2 sequence: T1 sequence with D35E
Described as above.

In assay [3] the target is T3, Flag-ALDOA D129V (human) (UniProt P04075).
T3 sequence: T1 sequence with D35E, D129V
The assay is described as above.

In assay [4] the target is T4, Flag-ALDOA K230A (human) (UniProt P04075).
T4 sequence: T1 sequence with D35E, K230A
Described as above.

The target of assay [5] is T5, Flag-ALDOA Y364S (human) (UniProt P04075).
T5 sequence: T1 sequence with D35E, Y364S
The description is as above.

The target of assay [6] is T6, Flag-ALDOA K42N (human) (UniProt P04075).
T6 sequence: T1 sequence with D35E, K42N
Described as above.

In assay [7] the target is c-Jun, endogenous (human (endogenous in HCCLM3, HepG2 and THLE2)) (UniProt P05412). The assay can be described thus: co-IP; endogenous proteins in HCCLM3 and HepG2 cell lysates; anti-ALDOA or anti-c-Jun (or control IgG) on protein A/G sepharose, 4 °C overnight; western blot.
Assay [8] has as its target T7, Aldolase A (ALDOA), endogenous (human (endogenous in HCCLM3, HepG2 and THLE2)) (UniProt P04075).
T7 sequence: T1 sequence with D35E
Described as above.

In assay [9] the target is T7, Aldolase A (ALDOA), endogenous (human (endogenous in HCCLM3, HepG2 and THLE2)). The experiment in a line: proximity ligation; Duolink PLA on fixed, permeabilised THLE2 and HCCLM3 cells; endogenous ALDOA and c-Jun; confocal microscopy, spots counted.

Turning to “Myc-c-Jun, wild type (from UniProt P05412 1-331)”, the binding result in assay [1] was “binds”; in [2] it was “binds”; in assay [3], “binds”; in assay [4], “binds”; in assay [5], “no binding”; in assay [6] it was “binds”.

Turning to “P21-activated kinase 2 (PAK2), endogenous (from UniProt Q13177 1-524) (enzyme)”, the binding result in [7] and in [8] was “binds” throughout.

For the substance “c-Fos, endogenous (from UniProt P01100 1-380)”, the binding entry in assay [8] is recorded as “no binding”.

For “c-Jun, endogenous (from UniProt P05412 1-331)”, the binding result in assay [8] and in [9] was “binds” throughout.
